From patent US6528270 (SUGEN, dated 2003)

Biological target: T1, P185 BCR-ABL (wild type) (human, UniProt P11274 1-426; P00519 27-1130, tyrosine-phosphorylated: BCR first exon sequences are phosphorylated on tyrosine by the ABL kinase; phosphorylated tyrosine 177)
T1 construct: Chimeric kinase; cDNA per McLaughlin et al. 1989; Expressed in Sf9 insect cells (baculovirus), COS cells, Rat1 fibroblasts, and native in ALL-1 cells; also called P185 wild type; BCR-ABL tyrosine kinase
Assay: GST pull-down from 35S-labelled Sf9 lysates

T1 sequence (P11274 other isoform, or with tags, fused parts or gaps limits assumed): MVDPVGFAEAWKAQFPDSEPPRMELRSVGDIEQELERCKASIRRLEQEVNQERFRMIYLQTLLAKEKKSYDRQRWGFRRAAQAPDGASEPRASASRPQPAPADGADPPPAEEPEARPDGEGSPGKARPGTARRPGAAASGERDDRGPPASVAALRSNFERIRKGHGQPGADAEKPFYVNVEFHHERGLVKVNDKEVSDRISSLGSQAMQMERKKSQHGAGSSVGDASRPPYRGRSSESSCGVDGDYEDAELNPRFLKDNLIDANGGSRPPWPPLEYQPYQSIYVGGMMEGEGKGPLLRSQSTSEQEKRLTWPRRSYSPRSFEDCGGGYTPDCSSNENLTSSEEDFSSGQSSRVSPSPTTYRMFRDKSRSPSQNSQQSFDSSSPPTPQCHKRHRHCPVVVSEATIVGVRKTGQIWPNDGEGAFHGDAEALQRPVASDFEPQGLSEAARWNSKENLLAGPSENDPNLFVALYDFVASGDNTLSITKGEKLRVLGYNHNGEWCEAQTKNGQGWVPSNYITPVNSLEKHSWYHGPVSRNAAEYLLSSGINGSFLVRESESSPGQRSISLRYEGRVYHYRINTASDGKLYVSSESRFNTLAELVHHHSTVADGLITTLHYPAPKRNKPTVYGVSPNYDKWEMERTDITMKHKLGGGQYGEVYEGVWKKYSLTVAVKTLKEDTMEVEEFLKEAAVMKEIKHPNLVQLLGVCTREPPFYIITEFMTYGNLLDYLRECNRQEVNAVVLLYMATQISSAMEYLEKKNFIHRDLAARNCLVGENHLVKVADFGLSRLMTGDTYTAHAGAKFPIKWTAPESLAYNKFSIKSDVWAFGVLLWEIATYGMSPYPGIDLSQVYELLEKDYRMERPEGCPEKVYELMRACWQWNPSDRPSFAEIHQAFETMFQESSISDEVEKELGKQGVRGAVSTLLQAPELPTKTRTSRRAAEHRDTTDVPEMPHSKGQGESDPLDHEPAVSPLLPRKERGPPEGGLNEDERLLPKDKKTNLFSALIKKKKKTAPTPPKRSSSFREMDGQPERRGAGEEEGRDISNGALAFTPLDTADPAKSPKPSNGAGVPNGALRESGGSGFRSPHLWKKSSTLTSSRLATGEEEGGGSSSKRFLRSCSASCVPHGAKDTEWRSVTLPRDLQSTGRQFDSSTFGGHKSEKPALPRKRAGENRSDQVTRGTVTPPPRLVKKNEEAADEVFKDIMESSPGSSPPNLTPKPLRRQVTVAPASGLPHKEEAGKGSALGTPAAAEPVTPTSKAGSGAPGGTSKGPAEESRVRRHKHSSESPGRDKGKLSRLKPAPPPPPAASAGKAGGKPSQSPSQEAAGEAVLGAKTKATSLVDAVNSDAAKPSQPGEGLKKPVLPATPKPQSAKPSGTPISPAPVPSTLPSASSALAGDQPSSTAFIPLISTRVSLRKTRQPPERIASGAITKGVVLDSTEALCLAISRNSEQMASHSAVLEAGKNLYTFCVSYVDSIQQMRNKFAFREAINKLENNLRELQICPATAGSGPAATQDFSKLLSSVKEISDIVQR

B1: GST alone (other)
chain: not shown
notes: Control for the GST fusion pull-downs; also called glutathione S-transferase
Q: Does B1 bind?
A: Result: no binding
